Results published in paper PMC10967194.
Results are given in words; binding and its absence hold for the method and conditions named. In cells and extracts the contact can be indirect. Some binding calls cover weakened binding; strength is not graded here.

Chains of the proteins cited; added tags and fusions are not shown. Lines headed by an entry give the natural chain unless they say otherwise; changes in a name come on top. A line that says so, or that is headed by a name, gives the form on record, which may keep a tag or linker. Residues count along the entry.
UniProt Q9QZM4: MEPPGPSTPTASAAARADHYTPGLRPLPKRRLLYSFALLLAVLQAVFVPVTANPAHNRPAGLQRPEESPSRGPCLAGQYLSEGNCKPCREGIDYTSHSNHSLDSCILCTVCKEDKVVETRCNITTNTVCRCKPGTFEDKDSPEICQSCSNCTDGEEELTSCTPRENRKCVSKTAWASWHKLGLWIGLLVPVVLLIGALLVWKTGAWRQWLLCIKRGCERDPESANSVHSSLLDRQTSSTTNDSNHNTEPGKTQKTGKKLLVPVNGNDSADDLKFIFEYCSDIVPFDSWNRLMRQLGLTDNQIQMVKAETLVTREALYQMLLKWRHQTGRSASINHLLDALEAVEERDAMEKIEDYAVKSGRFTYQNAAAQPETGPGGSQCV
flag-tagged full-length TRAIL-R (1–381; TRAIL-R^WT-FLAG): residues 53-381 of Q9QZM4
flag-tagged death domain-truncated TRAIL-R mutant (1–273; TRAIL-R^△DD-FLAG): residues 53-273 of Q9QZM4
UniProt P06240: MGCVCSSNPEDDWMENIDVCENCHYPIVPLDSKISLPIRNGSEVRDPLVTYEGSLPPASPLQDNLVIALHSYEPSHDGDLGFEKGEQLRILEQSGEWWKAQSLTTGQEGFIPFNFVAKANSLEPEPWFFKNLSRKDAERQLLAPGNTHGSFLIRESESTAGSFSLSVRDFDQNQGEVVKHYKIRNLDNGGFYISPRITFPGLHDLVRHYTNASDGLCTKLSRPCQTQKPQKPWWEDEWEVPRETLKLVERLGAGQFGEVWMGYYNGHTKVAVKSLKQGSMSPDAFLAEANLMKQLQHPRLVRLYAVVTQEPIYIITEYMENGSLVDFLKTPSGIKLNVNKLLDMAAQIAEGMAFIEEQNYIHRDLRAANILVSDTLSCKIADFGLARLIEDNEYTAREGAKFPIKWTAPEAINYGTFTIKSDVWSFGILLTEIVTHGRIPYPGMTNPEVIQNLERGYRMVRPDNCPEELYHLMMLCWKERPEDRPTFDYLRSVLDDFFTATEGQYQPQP
UniProt P41241: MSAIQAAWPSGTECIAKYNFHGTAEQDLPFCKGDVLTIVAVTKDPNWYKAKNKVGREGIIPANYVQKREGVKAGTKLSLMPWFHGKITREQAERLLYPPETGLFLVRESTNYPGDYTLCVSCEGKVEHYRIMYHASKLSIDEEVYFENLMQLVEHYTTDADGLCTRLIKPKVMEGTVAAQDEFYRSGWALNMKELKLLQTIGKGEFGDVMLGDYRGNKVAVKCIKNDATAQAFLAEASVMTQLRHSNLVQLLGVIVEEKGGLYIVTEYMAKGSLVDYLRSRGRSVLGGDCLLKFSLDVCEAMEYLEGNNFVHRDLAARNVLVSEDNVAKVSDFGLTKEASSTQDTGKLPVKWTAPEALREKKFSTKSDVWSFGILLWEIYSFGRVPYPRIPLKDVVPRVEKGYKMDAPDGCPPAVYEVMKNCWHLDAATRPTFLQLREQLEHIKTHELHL
UniProt P29351: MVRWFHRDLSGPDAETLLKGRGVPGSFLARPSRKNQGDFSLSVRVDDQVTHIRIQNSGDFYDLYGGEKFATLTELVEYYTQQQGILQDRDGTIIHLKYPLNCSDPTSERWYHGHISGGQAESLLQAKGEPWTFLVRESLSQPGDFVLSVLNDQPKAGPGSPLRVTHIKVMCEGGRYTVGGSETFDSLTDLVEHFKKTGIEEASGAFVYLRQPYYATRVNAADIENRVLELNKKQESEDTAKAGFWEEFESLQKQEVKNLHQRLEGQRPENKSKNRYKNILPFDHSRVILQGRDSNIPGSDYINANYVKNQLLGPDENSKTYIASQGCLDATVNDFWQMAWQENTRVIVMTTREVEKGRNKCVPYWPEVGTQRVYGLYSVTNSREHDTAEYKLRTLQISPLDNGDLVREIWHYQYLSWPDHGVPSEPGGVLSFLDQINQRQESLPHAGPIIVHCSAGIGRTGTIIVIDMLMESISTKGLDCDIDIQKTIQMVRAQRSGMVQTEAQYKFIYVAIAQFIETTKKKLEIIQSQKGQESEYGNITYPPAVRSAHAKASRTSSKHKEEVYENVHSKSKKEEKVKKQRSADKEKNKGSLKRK

What was measured:
[1] = molecular target: TRAIL receptor (TRAIL-R), endogenous in murine T cells (mouse (endogenous in murine splenic CD4+ T cells)) (UniProt Q9QZM4); test: co-IP; endogenous proteins of murine splenic CD4+ T cell extracts; IP with anti-TRAIL-R Ab, reciprocal IP, or anti-Lck Ab, protein G-agarose, lysis buffer 50 mM Tris pH 8.0, 150 mM NaCl, 1% Triton X-100, 0.5% deoxycholate, 0.1% SDS, 4 °C, 3 h, immunoblot; cells resting, treated with TRAIL (10 µg/mL) and/or stimulated with anti-CD3 (3 µg/mL) and anti-CD28 (2 µg/mL) Abs
[2] = molecular target: Lck, endogenous in murine T cells (mouse (endogenous in murine splenic CD4+ T cells)) (UniProt P06240); test: as above
[3] = molecular target: flag-tagged death domain-truncated TRAIL-R mutant (1–273; TRAIL-R^△DD-FLAG) (mouse) (UniProt Q9QZM4); test: co-IP; EL4 T cells transfected with TRAIL-R^WT-FLAG or TRAIL-R^△DD-FLAG, stimulated with anti-CD3 (3 µg/mL) and anti-CD28 (2 µg/mL) Abs in the presence or absence of TRAIL (10 µg/mL) for 30 min; immunoprecipitation and immunoblot
[4] = molecular target: flag-tagged full-length TRAIL-R (1–381; TRAIL-R^WT-FLAG) (mouse) (UniProt Q9QZM4); test: as above

Substance | binding [1] | binding [2] | binding [3] | binding [4]
Cbl (E3 ubiquitin ligase), endogenous in murine T cells (from UniProt P22682 1-913) (enzyme) | no binding | – | – | –
Lck, endogenous in murine T cells (from UniProt P06240 1-509) (enzyme) | binds | – | – | –
Csk (Src tyrosine kinase), endogenous in murine T cells (from UniProt P41241 1-450) (enzyme) | no binding | – | – | –
tyrosine phosphatase SHP-1, endogenous in murine T cells (from UniProt P29351 1-595) (enzyme) | binds | binds | no binding | binds
